B1: #20 (bispecific antibody, human IgG1, kappa, L234A L235A)
heavy chain: DVQLVESGGGVVRPGESLRLSCTASGFTFDSYGMSWVRQAPGKGLEWVSSINVGDNTYYADSVRGRFIISRDSSRNTLYLQMNSLTAEDTAVYYCANWNSFFDYWGLGTLVTVSSASTKGPSVFPLAPSSKSTSGGTAALGCLVKDYFPEPVTVSWNSGALTSGVHTFPAVLQSSGLYSLSSVVTVPSSSLGTQTYICNVNHKPSNTKVDKKVEPKSCDKTHTCPPCPAPEAAGGPSVFLFPPKPKDTLMISRTPEVTCVVVDVSHEDPEVKFNWYVDGVEVHNAKTKPREEQYNSTYRVVSVLTVLHQDWLNGKEYKCKVSNKALGAPIEKTISKAKGQPREPQVYTLPPSREEMTKNQVSLTCLVKGFYPSDIAVEWESNGQPENNYKTTPPVLDSDGSFFLYSKLTVDKSRWQQGNVFSCSVMHEALHNHYTQKSLSLSPGKGGGGSGGGGSGGGGSGGGGSGGGGSDIQLTQSPSSLSASVGDRVTITCSASQDISNYLNWYQQKPGKAPKVLIYFTSSLHSGVPSRFSGSGSGTDFTLTISSLQPEDFATYYCQQYSTVPWTFGQGTKVEIKRTVAAPSVFIFPPSDEQLKSGTASVVCLLNNFYPREAKVQWKVDNALQSGNSQESVTEQDSKDSTYSLSSTLTLSKADYEKHKVYACEVTHQGLSSPVTKSFNRGECGGGGSGGGGSGGGGSGGGGSGGGGSGGGGSGGGGSGGGGSGGGGSGGGGSEVQLVESGGGLVQPGGSLRLSCAASGYDFTHYGMNWVRQAPGKGLEWVGWINTYTGEPTYAADFKRRFTFSLDTSKSTAYLQMNSLRAEDTAVYYCAKYPYYYGTSHWYFDVWGQGTLVTVSSASTKGPSVFPLAPSSKSTSGGTAALGCLVKDYFPEPVTVSWNSGALTSGVHTFPAVLQSSGLYSLSSVVTVPSSSLGTQTYICNVNHKPSNTKVDKKVEPKSCDKTHL
light chain (kappa): EIVLTQSPGTLSLSPGEIATLSCRASQNVRSDLAWYQQKPGQAPRLLIYDASNRATGIPDRFSGSGSGTDFTLTISSLQSEDFAVYYCQQYSNWPPLTFGGGTKVEIKRTVAAPSVFIFPPSDEQLKSGTASVVCLLNNFYPREAKVQWKVDNALQSGNSQESVTEQDSKDSTYSLSSTLTLSKADYEKHKVYACEVTHQGLSSPVTKSFNRGEC
B2: #21 (bispecific antibody, human IgG1, kappa, L234A L235A)
heavy chain: DVQLVESGGGVVRPGESLRLSCTASGFTFDSYGMSWVRQAPGKGLEWVSSINVGDNTYYADSVRGRFIISRDSSRNTLYLQMNSLTAEDTAVYYCANWNSFFDYWGLGTLVTVSSASTKGPSVFPLAPSSKSTSGGTAALGCLVKDYFPEPVTVSWNSGALTSGVHTFPAVLQSSGLYSLSSVVTVPSSSLGTQTYICNVNHKPSNTKVDKKVEPKSCDKTHTCPPCPAPEAAGGPSVFLFPPKPKDTLMISRTPEVTCVVVDVSHEDPEVKFNWYVDGVEVHNAKTKPREEQYNSTYRVVSVLTVLHQDWLNGKEYKCKVSNKALGAPIEKTISKAKGQPREPQVYTLPPSREEMTKNQVSLTCLVKGFYPSDIAVEWESNGQPENNYKTTPPVLDSDGSFFLYSKLTVDKSRWQQGNVFSCSVMHEALHNHYTQKSLSLSPGKGGGGSGGGGSGGGGSGGGGSEVQLVESGGGLVQPGGSLRLSCAASGYDFTHYGMNWVRQAPGKGLEWVGWINTYTGEPTYAADFKRRFTFSLDTSKSTAYLQMNSLRAEDTAVYYCAKYPYYYGTSHWYFDVWGQGTLVTVSSASTKGPSVFPLAPSSKSTSGGTAALGCLVKDYFPEPVTVSWNSGALTSGVHTFPAVLQSSGLYSLSSVVTVPSSSLGTQTYICNVNHKPSNTKVDKKVEPKSCDKTHGGGGSGGGGSGGGGSGGGGSGGGGSDIQLTQSPSSLSASVGDRVTITCSASQDISNYLNWYQQKPGKAPKVLIYFTSSLHSGVPSRFSGSGSGTDFTLTISSLQPEDFATYYCQQYSTVPWTFGQGTKVEIKRTVAAPSVFIFPPSDEQLKSGTASVVCLLNNFYPREAKVQWKVDNALQSGNSQESVTEQDSKDSTYSLSSTLTLSKADYEKHKVYACEVTHQGLSSPVTKSFNRGEC
light chain (kappa): B1 light chain (kappa)
B3: #22 (bispecific antibody, human IgG1, kappa, L234A L235A)
heavy chain: DVQLVESGGGVVRPGESLRLSCTASGFTFDSYGMSWVRQAPGKGLEWVSSINVGDNTYYADSVRGRFIISRDSSRNTLYLQMNSLTAEDTAVYYCANWNSFFDYWGLGTLVTVSSASTKGPSVFPLAPSSKSTSGGTAALGCLVKDYFPEPVTVSWNSGALTSGVHTFPAVLQSSGLYSLSSVVTVPSSSLGTQTYICNVNHKPSNTKVDKKVEPKSCDKTHTCPPCPAPEAAGGPSVFLFPPKPKDTLMISRTPEVTCVVVDVSHEDPEVKFNWYVDGVEVHNAKTKPREEQYNSTYRVVSVLTVLHQDWLNGKEYKCKVSNKALGAPIEKTISKAKGQPREPQVYTLPPSREEMTKNQVSLTCLVKGFYPSDIAVEWESNGQPENNYKTTPPVLDSDGSFFLYSKLTVDKSRWQQGNVFSCSVMHEALHNHYTQKSLSLSPGKGGGGSGGGGSGGGGSGGGGSEVQLVESGGGLVQPGGSLRLSCAASGYDFTHYGMNWVRQAPGKGLEWVGWINTYTGEPTYAADFKRRFTFSLDTSKSTAYLQMNSLRAEDTAVYYCAKYPYYYGTSHWYFDVWGQGTLVTVSSASTKGPSVFPLAPSSKSTSGGTAALGCLVKDYFPEPVTVSWNSGALTSGVHTFPAVLQSSGLYSLSSVVTVPSSSLGTQTYICNVNHKPSNTKVDKKVEPKSCDKTHGGGGSGGGGSGGGGSGGGGSGGGGSGGGGSDIQLTQSPSSLSASVGDRVTITCSASQDISNYLNWYQQKPGKAPKVLIYFTSSLHSGVPSRFSGSGSGTDFTLTISSLQPEDFATYYCQQYSTVPWTFGQGTKVEIKRTVAAPSVFIFPPSDEQLKSGTASVVCLLNNFYPREAKVQWKVDNALQSGNSQESVTEQDSKDSTYSLSSTLTLSKADYEKHKVYACEVTHQGLSSPVTKSFNRGEC
light chain (kappa): B1 light chain (kappa)
B4: #23 (bispecific antibody, human IgG1, kappa, L234A L235A)
heavy chain: DVQLVESGGGVVRPGESLRLSCTASGFTFDSYGMSWVRQAPGKGLEWVSSINVGDNTYYADSVRGRFIISRDSSRNTLYLQMNSLTAEDTAVYYCANWNSFFDYWGLGTLVTVSSASTKGPSVFPLAPSSKSTSGGTAALGCLVKDYFPEPVTVSWNSGALTSGVHTFPAVLQSSGLYSLSSVVTVPSSSLGTQTYICNVNHKPSNTKVDKKVEPKSCDKTHTCPPCPAPEAAGGPSVFLFPPKPKDTLMISRTPEVTCVVVDVSHEDPEVKFNWYVDGVEVHNAKTKPREEQYNSTYRVVSVLTVLHQDWLNGKEYKCKVSNKALGAPIEKTISKAKGQPREPQVYTLPPSREEMTKNQVSLTCLVKGFYPSDIAVEWESNGQPENNYKTTPPVLDSDGSFFLYSKLTVDKSRWQQGNVFSCSVMHEALHNHYTQKSLSLSPGKGGGGSGGGGSGGGGSGGGGSEVQLVESGGGLVQPGGSLRLSCAASGYDFTHYGMNWVRQAPGKGLEWVGWINTYTGEPTYAADFKRRFTFSLDTSKSTAYLQMNSLRAEDTAVYYCAKYPYYYGTSHWYFDVWGQGTLVTVSSASTKGPSVFPLAPSSKSTSGGTAALGCLVKDYFPEPVTVSWNSGALTSGVHTFPAVLQSSGLYSLSSVVTVPSSSLGTQTYICNVNHKPSNTKVDKKVEPKSCDKTHGGGGSGGGGSGGGGSGGGGSGGGGSGGGGSGGGGSDIQLTQSPSSLSASVGDRVTITCSASQDISNYLNWYQQKPGKAPKVLIYFTSSLHSGVPSRFSGSGSGTDFTLTISSLQPEDFATYYCQQYSTVPWTFGQGTKVEIKRTVAAPSVFIFPPSDEQLKSGTASVVCLLNNFYPREAKVQWKVDNALQSGNSQESVTEQDSKDSTYSLSSTLTLSKADYEKHKVYACEVTHQGLSSPVTKSFNRGEC
light chain (kappa): B1 light chain (kappa)
B5: #24 (bispecific antibody, human IgG1, kappa, L234A L235A)
heavy chain: DVQLVESGGGVVRPGESLRLSCTASGFTFDSYGMSWVRQAPGKGLEWVSSINVGDNTYYADSVRGRFIISRDSSRNTLYLQMNSLTAEDTAVYYCANWNSFFDYWGLGTLVTVSSASTKGPSVFPLAPSSKSTSGGTAALGCLVKDYFPEPVTVSWNSGALTSGVHTFPAVLQSSGLYSLSSVVTVPSSSLGTQTYICNVNHKPSNTKVDKKVEPKSCDKTHTCPPCPAPEAAGGPSVFLFPPKPKDTLMISRTPEVTCVVVDVSHEDPEVKFNWYVDGVEVHNAKTKPREEQYNSTYRVVSVLTVLHQDWLNGKEYKCKVSNKALGAPIEKTISKAKGQPREPQVYTLPPSREEMTKNQVSLTCLVKGFYPSDIAVEWESNGQPENNYKTTPPVLDSDGSFFLYSKLTVDKSRWQQGNVFSCSVMHEALHNHYTQKSLSLSPGKGGGGSGGGGSGGGGSGGGGSEVQLVESGGGLVQPGGSLRLSCAASGYDFTHYGMNWVRQAPGKGLEWVGWINTYTGEPTYAADFKRRFTFSLDTSKSTAYLQMNSLRAEDTAVYYCAKYPYYYGTSHWYFDVWGQGTLVTVSSASTKGPSVFPLAPSSKSTSGGTAALGCLVKDYFPEPVTVSWNSGALTSGVHTFPAVLQSSGLYSLSSVVTVPSSSLGTQTYICNVNHKPSNTKVDKKVEPKSCDKTHGGGGSGGGGSGGGGSGGGGSGGGGSGGGGSGGGGSGGGGSGGGGSGGGGSDIQLTQSPSSLSASVGDRVTITCSASQDISNYLNWYQQKPGKAPKVLIYFTSSLHSGVPSRFSGSGSGTDFTLTISSLQPEDFATYYCQQYSTVPWTFGQGTKVEIKRTVAAPSVFIFPPSDEQLKSGTASVVCLLNNFYPREAKVQWKVDNALQSGNSQESVTEQDSKDSTYSLSSTLTLSKADYEKHKVYACEVTHQGLSSPVTKSFNRGEC
light chain (kappa): B1 light chain (kappa)

target: human Tie2 (human, UniProt Q02763 23-1124); experiment: cell-based or functional assay
UniProt Q02763, sequence (Q02763 23-1124): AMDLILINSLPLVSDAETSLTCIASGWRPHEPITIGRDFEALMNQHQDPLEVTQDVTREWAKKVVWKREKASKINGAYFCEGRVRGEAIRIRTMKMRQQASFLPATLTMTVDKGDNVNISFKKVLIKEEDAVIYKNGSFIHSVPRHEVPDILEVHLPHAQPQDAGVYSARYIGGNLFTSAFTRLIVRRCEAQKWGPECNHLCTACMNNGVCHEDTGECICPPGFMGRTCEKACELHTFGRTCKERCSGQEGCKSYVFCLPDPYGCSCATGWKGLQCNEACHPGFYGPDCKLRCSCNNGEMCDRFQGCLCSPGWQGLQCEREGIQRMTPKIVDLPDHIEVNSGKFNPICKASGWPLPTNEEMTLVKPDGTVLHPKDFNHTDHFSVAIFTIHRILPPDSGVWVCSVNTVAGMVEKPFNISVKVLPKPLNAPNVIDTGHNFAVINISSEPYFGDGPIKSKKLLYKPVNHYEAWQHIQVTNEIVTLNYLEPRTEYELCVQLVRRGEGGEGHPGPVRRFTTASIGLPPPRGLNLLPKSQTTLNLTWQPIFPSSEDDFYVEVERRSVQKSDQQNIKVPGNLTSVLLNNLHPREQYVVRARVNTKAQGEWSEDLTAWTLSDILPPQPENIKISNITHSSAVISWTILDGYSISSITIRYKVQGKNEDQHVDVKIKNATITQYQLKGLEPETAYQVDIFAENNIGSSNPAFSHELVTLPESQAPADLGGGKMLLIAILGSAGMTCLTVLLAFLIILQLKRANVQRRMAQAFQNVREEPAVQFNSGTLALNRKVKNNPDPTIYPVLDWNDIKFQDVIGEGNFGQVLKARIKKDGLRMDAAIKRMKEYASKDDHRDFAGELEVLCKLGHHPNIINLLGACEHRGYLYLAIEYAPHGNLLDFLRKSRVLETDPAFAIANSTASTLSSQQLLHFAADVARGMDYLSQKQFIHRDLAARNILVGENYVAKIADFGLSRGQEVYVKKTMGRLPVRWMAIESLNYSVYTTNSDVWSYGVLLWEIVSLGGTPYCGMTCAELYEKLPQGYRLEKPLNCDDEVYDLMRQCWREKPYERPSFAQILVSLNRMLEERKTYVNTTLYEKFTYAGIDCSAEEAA

Row | Binder | EC50, pTie2 in HUVEC (in vitro potency; the sheet's head prints no unit, EC50 in nM per legend paragraph 17)
1 | B1 | 4.73 nM
2 | B2 | 4.57 nM
3 | B3 | 6.04 nM
4 | B4 | 5.9 nM
5 | B5 | 5.59 nM

— patent US20250250343A1 (UNITY BIOTECHNOLOGY, published 2025)
